This note sets out measurements from paper PMC12136788.

T1: UNK ZnF1-3 (human, UniProt Q9C0B0 31-174)
T1 sequence: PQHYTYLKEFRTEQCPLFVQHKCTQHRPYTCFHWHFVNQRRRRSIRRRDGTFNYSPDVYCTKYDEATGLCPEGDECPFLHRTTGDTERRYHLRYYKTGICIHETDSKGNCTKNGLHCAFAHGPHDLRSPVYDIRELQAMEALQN

B1: chr11:31955072:31955073:+_ENSMUSG00000020297_ENSMUST00000020537|mus_hu|FALSE|FALSE (ssRNA)
RNA: GGGAGUUCUACAGUCCGACGAUCUUUGUGCUUAUAGACGAAUCCCUCUGGGCAGCUGUGAUCAUAGGUGAAGGCUUUGUAAACCACCAGGAACACGAUGCACGCAAGGAAAGCUAGGGCCAGGCUGACAAGGAUGGUGACCGUCAACAGAGGAUUGAGCAUCA
B2: chr17:65740002:65740003:+_ENSG00000130935_ENST00000581375|hu_hu|hu_hu_hu_mus_False|1_8 (ssRNA)
RNA: GGGAGUUCUACAGUCCGACGAUCAACAAAUCUUUCUUCCCUGGACGAACAGGAAGAUUCAUAUUAAAAAAAAUAUAUAUCCAUCAAGUUAGGUGUGGUGGCCACACCUUUACUCCCAGCACUUUGGGAAUAUAAUCCUCUAUUCAACAGAGGAUUGAGCAUCA
B3: chr15:25616465:25616466:-_ENSG00000114062_ENST00000438097|hu_mus|FALSE|FALSE (ssRNA)
RNA: GGGAGUUCUACAGUCCGACGAUCAGCUUUGCAAAAUAAUGGCAACGCCAUUUCCAGAUAUUCAGGACUGUGGAGAUUACUAUUCUCCAUUACAAUAAUGAACAAAUUGAGAUAAUUAGGAUCUCGAGUAUACACAUUAUGAUACAACAGAGGAUUGAGCAUCA
B4: chr12:79978091:79978092:+_ENSMUSG00000021116_ENSMUST00000071230|mus_mus|motif|central (ssRNA)
RNA: GGGAGUUCUACAGUCCGACGAUCGCUCUCCAGCUGCUCAUCCUUGGUAUAUUCUAAUACCUCAGCAACAUGGCGAAGAAUGCGGUAAACAGUUUUGGAUUUUGUGAAUUUGUCCUCACAUUUGAUUGCUUCCUCUGGAGAAACCAACAGAGGAUUGAGCAUCA
B5: chr1:122009976:122009977:-_ENSMUSG00000026385_ENSMUST00000027634|mus_mus|motif|central (ssRNA)
RNA: GGGAGUUCUACAGUCCGACGAUCAAUUGAUUGUAGGUAAAAACUACAGAGGGAGGAGGAGCAGAGGUUAACGCUGGCCCGGAUGUAUCACAGCCAUAUCAUCUACAUUAGAAAAAACCAAGGCAUUAUGUCCUCACAGGUCACCAACAGAGGAUUGAGCAUCA
B6: chr5:128440902:128440903:+_ENSG00000066583_ENST00000173527|hu_mus|hu_hu_hu_mus_True|88_108 (ssRNA)
RNA: GGGAGUUCUACAGUCCGACGAUCUUGAACCGUGCUCCCAAGUCCUUUAGGGUAUUGUUCCGUUAUGAUAACUGGAAUCCCUAAGAUCCGAGCUCCUUGCAACAGUCUCUGUCCCACACUAAUGAUGUCCCCAAAGUAUUUGAUCAACAGAGGAUUGAGCAUCA
B7: chr17:30807568:30807569:+_ENSG00000108671_ENST00000457654|hu_hu|FALSE|FALSE (ssRNA)
RNA: GGGAGUUCUACAGUCCGACGAUCGUAGAGGGAAUCCACUACUUUGCUCAUGUUCUGAAUUGUUUCCAGAGCAGCUUCGUAAGUUUUAUCUACUGGGGGUUCAUCGAAAAUAAUCAGGACACCCUCCCCCUGGUCCAAAAUCCCCAACAGAGGAUUGAGCAUCA
B8: chr5:22955990:22955991:+_ENSMUSG00000029004_ENSMUST00000094962|mus_hu|motif|central (ssRNA)
RNA: GGGAGUUCUACAGUCCGACGAUCUGCAUUGGUAUCCAAAACACUGGGGCAUGCCAGCCACAGUGCUCAUUGCAAACAUCGGAGUGCAUCCACAAACCCAUGAGAUGUCUGGUAAAUCUGAGGUCCAAGAAAGAAUAAAUGUCUCAACAGAGGAUUGAGCAUCA
B9: chr6:133136146:133136147:+_ENSG00000112306_ENST00000230050|hu_mus|motif|central (ssRNA)
RNA: GGGAGUUCUACAGUCCGACGAUCACACAGAUGGGCUUGGCGCUUGUCUAAGGCUUUGGCAGCUUCGCGUAUGCCACGUGCGGGGCCAUCGUGGAUGAGGGCGGUCUUCAGCACCUCUUGUAGAGCAGUGUUGACGUCCAUUACCAACAGAGGAUUGAGCAUCA
B10: chr17:62496765:62496766:-_ENSG00000108654_ENST00000581693|hu_hu|FALSE|FALSE (ssRNA)
RNA: GGGAGUUCUACAGUCCGACGAUCUGCUUGAUUAGCUUCACGAAGCACAGAGAUAAGGUCGCUCACUUGCUUUAUGUUAUUAGGUGUAAAGAAAGUGUAUGCUGUGCCUGUUUUGGUACUGCGAGCAGUUCUUCCAAUUCGAUGCAACAGAGGAUUGAGCAUCA
B11: chr12:57064132:57064133:-_ENSG00000110958_ENST00000262033|hu_mus|FALSE|FALSE (ssRNA)
RNA: GGGAGUUCUACAGUCCGACGAUCCGACAUGUCUUCAUCUGAGUCAUCCUCCCAGUCUUUCCAAUUAUUGAAGUCCACACUGAGCCAAUUAAGCUUUGCCCUUUCCUUUGUUAACCUAGGCCAUGACUGGCCGGAUUCUCCUUUCAACAGAGGAUUGAGCAUCA
B12: chr3:176767854:176767855:-_ENSG00000177565_ENST00000430069|hu_hu|hu_hu_hu_mus_False|38_78 (ssRNA)
RNA: GGGAGUUCUACAGUCCGACGAUCGACAUCCUUGUUACUGGGCACGUCCUGCCCUCCUUCUCGUAUACAGUGUCUAAGCACGAGCUGCGUAGGGCCACUGGUGCUGUUCUCACUGAGGUUCCAGAUUCUUGCCGUGGAGUCUCCCAACAGAGGAUUGAGCAUCA
B13: chr7:87731985:87731986:-_ENSMUSG00000030527_ENSMUST00000122255|mus_mus|motif|central (ssRNA)
RNA: GGGAGUUCUACAGUCCGACGAUCUGAAGAGAGGUCUGGGGAAGCCGGUAGCCACUUCAAUGCUGCCGCCUAAGACAGGCGGGUCACAAAGGCAGCAUCGAGUGCAGGCUCACACGACUGCAGCAGGGCAACGCAGUCUCCUGCCAACAGAGGAUUGAGCAUCA
B14: chrX:98860016:98860017:+_ENSMUSG00000034160_ENSMUST00000044475|mus_mus|FALSE|FALSE (ssRNA)
RNA: GGGAGUUCUACAGUCCGACGAUCUUCUUUAUAGUGCAUCAGUGCUUCCUGCAGCUUGCCCUGCUGUUGCAGUACACUUGCUAAAUUGGAAUGUGCAGCAGCAAACUCUGGGAAGACUUCUAAUGCUUUGCGAUACAGGCGAACCAACAGAGGAUUGAGCAUCA
B15: 82950143_82950263_550_CDS_ENSG00000005700_ENST00000306270|human|control|control (ssRNA)
RNA: GGGAGUUCUACAGUCCGACGAUCAUCCAAAGCAUGCUUCAGGGAUCGACACUUUGAUGUGCAGUCAGGCAUGGGUGAACUCAUCCUAACUGUUUUUAUACCACUUACUUCAGAAUCGUGAAAACUAAUUUUAAAAAAUGAAAACAACAGAGGAUUGAGCAUCA
B16: chr3:101181902:101181903:+_ENSMUSG00000042035_ENSMUST00000043983|mus_mus|FALSE|FALSE (ssRNA)
RNA: GGGAGUUCUACAGUCCGACGAUCUGAGAUCGCUCAUUCGGAUCCCCCAAAGGGAACCAGGCAGGUUUUGUCAAAACCCAAGACAGCCAAAACACCCGGAUUGGUAAAGACACUUCGGAUUUCUUCAUCAAAAAGUCCAUCUCCCAACAGAGGAUUGAGCAUCA
B17: 119178578_119178698_1814_3pUTR_ENSMUSG00000018076_ENSMUST00000100816|mouse|control|control (ssRNA)
RNA: GGGAGUUCUACAGUCCGACGAUCGAGGCAGUCUUUGGCCUACGAGGACAGUUCUGUCCUCUAUAGUAGACAGCUGCUGAAGGUCUAGCCCAUUUCCAUAGAGGGCAGGGUUCACAGGGACAGAAGGUGGGUCCAAACUCUCUGCAACAGAGGAUUGAGCAUCA
B18: chr7:44244176:44244177:+_ENSG00000106636_ENST00000223369|hu_mus|hu_hu_hu_mus_False|1_18 (ssRNA)
RNA: GGGAGUUCUACAGUCCGACGAUCACUGUCGCUCCGGACGUAGACAUGGCAAAGAUACUCUUGUUCUUUGACAGAAGCUCUGCUGCCUUUCCCCGAGCGUUCCACAAUCAGUUGACUCGUGAAGGUCAUGAAUUCCUGAACGCUCAACAGAGGAUUGAGCAUCA
B19: 28426260_28490093_4108_CDS_ENSG00000100154_ENST00000397906|human|control|control (ssRNA)
RNA: GGGAGUUCUACAGUCCGACGAUCGUCAGUGACCGAGUUGAGUUUGUUGUUCAUCUCUUCAAAUUGCUGGUCCAUGAUGUCUCCCGCUUCACUCUCUGUCUCACUGCUGGCACAGGCCCUUGAGUAGUGAGACUCCACCCCCAGCAACAGAGGAUUGAGCAUCA
B20: chr1:60041781:60041782:+_ENSMUSG00000041040_ENSMUST00000036540|mus_hu|mus_mus_mus_hu_False|8_108 (ssRNA)
RNA: GGGAGUUCUACAGUCCGACGAUCAAGAGGAGUGAAUUAAAGUAAAUGCAGUAGUGGCAAAUUUUCUUUUAUUUUCCUUCACAAAAGAAAAUCUUUAUAACCCAGUCCUAGUCUUGGACAUAGUGAAUCUCCAUGGGUCUGACUCAACAGAGGAUUGAGCAUCA
B21: chr5:138651791:138651792:+_ENSG00000015479_ENST00000502499|hu_mus|FALSE|FALSE (ssRNA)
RNA: GGGAGUUCUACAGUCCGACGAUCUCCUCCAAGAUGAAAUGAAGGAGGCGGCGGUCCCAGAAUCCCUGGUGCUGGGUUUGUAGACUGCUGCAGCAUGAAUGGAUCACCCAUUGUGUGUCCAGUAUCAUUGUCAGGAUUCCAUUCCAACAGAGGAUUGAGCAUCA
B22: 3419237_3424114_2893_CDS_ENSG00000159788_ENST00000382788|human|control|control (ssRNA)
RNA: GGGAGUUCUACAGUCCGACGAUCGCAGGCCUCCGACAGGUCCAGGCUCCCCGCAGAGGACACAGAGCCCUGCGACUCUCGGCGACACAGGCCUCCAUUGGCAUGCAGGGCGUCGUCUGCGUGGUCCCCGUGCUCCCUCUUUUUCAACAGAGGAUUGAGCAUCA

The other results are listed elsewhere or left out.

The target of the assay is T1, UNK ZnF1-3. Kind of assay: nsRBNS (natural sequence RNA bind-n-seq); RBNS binding buffer (assumed for nsRBNS): 25 mM Tris pH 7.5, 150 mM KCl, 3 mM MgCl2, 0.01% Triton X-100, 500 ug/ml BSA, 20 U/ml SUPERase-In, 4 C; UNK is unkempt and MSI1 is Musashi-1; names of the RNAs are library labels; protein concentration not given here; high values mean tight binding.
Turning to B1, the binding signal was found to be 1.32 enrichment R.
Then B2, with 0.918 enrichment R; and B3, with 0.948 enrichment R.
With B4 the figure was 0.601 enrichment R.
On to B5, for which the binding signal turned out to be 2.46 enrichment R.
Regarding B6, the binding signal is 0.749 enrichment R.
Then B7, with 1.02 enrichment R.
In turn, B8 returned a binding signal of 1.28 enrichment R.
With B9 the figure was 0.973 enrichment R; with B10, 0.558 enrichment R.
With B11 the figure was 0.639 enrichment R.
With B12 the figure was 0.448 enrichment R; with B13, 0.764 enrichment R; with B14, 0.692 enrichment R.
For B15, the binding signal was 1.21 enrichment R.
B16 came in with a binding signal of 1.15 enrichment R.
Then B17, with 0.884 enrichment R; and B18, with 0.566 enrichment R; and B19, with 0.598 enrichment R.
Consider B20, for which the binding signal came out at 0.739 enrichment R.
With B21 the figure was 0.768 enrichment R.
B22 gave a binding signal of 0.671 enrichment R.
